The other results are listed elsewhere or left out. At the low end of the ranking the order means little.
Target: T1, GST-Rok-C97-191 (UniProt O34857)
T1 sequence: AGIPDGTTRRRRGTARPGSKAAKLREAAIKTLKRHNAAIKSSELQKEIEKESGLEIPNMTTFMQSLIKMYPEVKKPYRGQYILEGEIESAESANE
Experiment: protein binding microarray;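 also: rank score from −0.5 (least bound) to 0.5 (best bound)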
Conditions: Rok is a gene silencer of Bacillus subtilis; high values mean tight binding; most listed sequences are background and not binding sites; double strand, one strand shown

Sequence | binding signal
CTACAAGC | 0.0458 E-score
CAGTCTTC | -0.0268 E-score
GCAGTCAC | 0.00474 E-score
ATGGCGTC | -0.242 E-score
ATGTTACG | 0.0805 E-score
CGGAAGCC | -0.232 E-score
CAGACGGA | -0.1 E-score
CTGTCCCA | -0.0317 E-score
AAGGGCGG | -0.321 E-score
CTTGTGGA | -0.119 E-score
CGGCGCGA | -0.111 E-score
CATATAGA | 0.144 E-score
AGACAACC | -0.0243 E-score
CGAAAAGC | 0.143 E-score
CGCCGATC | -0.291 E-score
AAGCTATT | 0.147 E-score
AGCCATTA | -0.0752 E-score
ACAACGTC | -0.0982 E-score
GAAGTGTC | -0.143 E-score
ATTGGATA | 0.108 E-score
ACGAATAG | 0.0145 E-score
AGACAGAC | -0.187 E-score
CGACGTCC | -0.262 E-score
GAATCGGC | -0.0283 E-score
AGTAGATC | 0.323 E-score

Sequence | binding signal
CCCATAAC | 0.0404 E-score
ACTGCTTC | -0.207 E-score
CCCAAAGG | -0.408 E-score
GGAGCATA | 0.019 E-score
AGCCGTAC | 0.169 E-score
AGAGGGAG | -0.165 E-score
ATTAGTTG | 0.118 E-score
AGCACACG | 0.0455 E-score
AACGTGTG | 0.0755 E-score
GTTTGCCA | -0.132 E-score
ACCCTTTC | -0.214 E-score
TCCATCAA | -0.0864 E-score
CTAATCAC | 0.0221 E-score
AAATTTGC | 0.141 E-score
AGGCCGAC | -0.376 E-score
CTCTTTGA | -0.00994 E-score
ATAAGTTA | 0.256 E-score
AAAACTAT | 0.415 E-score
AGTGTTTC | 0.0568 E-score
CTGTGGGC | -0.211 E-score
AAAGGCAC | -0.116 E-score
ACGGCAGC | -0.322 E-score
AAGCGACA | -0.136 E-score
CAGGCGTA | 0.0509 E-score
CTGCATAC | 0.062 E-score

Sequence | binding signal
CCTAACCC | -0.201 E-score
GACGGAAC | -0.187 E-score
CCGACGTA | -0.0042 E-score
AGGTCCTC | -0.0779 E-score
GAGGTGGA | -0.214 E-score
AGGGCACC | -0.246 E-score
ATACTTCA | 0.0731 E-score
ATCAAAGC | 0.0269 E-score
CGCTTAGA | -0.0215 E-score
AAGGCCAA | -0.251 E-score
ATTGCGTG | 0.0835 E-score
AAGGGTCA | -0.251 E-score
AAGCCCTC | -0.411 E-score
AACCACTA | 0.0382 E-score
AGAGTCAA | -0.277 E-score
CTGAGGAA | -0.0796 E-score
AGATGGAT | -0.0714 E-score
GTGCCTTA | -0.0896 E-score
CTCCACGA | -0.113 E-score
GGCTGCCA | -0.165 E-score
GCACAGAA | -0.0247 E-score
GGATTCCA | -0.105 E-score
TGCTTACA | -0.0436 E-score
GCAACACC | -0.0846 E-score
ACCTACCA | 0.31 E-score

Sequence | binding signal
CGGGTTTC | -0.143 E-score
ACAGGCCC | -0.293 E-score
GCGCCGCC | -0.346 E-score
CAGCAGAC | -0.175 E-score
GTCGATAA | 0.16 E-score
GGTGCACA | -0.187 E-score
AGGAACAT | 0.0671 E-score
GAAACTGA | 0.0667 E-score
GCCTCAAC | -0.0981 E-score
ACGCCACG | -0.101 E-score
GTTGATGA | -0.0318 E-score
CTAGTTTA | 0.378 E-score
AAATGTGT | 0.244 E-score
ACTCCACG | -0.154 E-score
CGGCGAAC | -0.0588 E-score
ACGGACAA | -0.0239 E-score
GCCTGTAC | -0.195 E-score
CAGAACGC | 0.0176 E-score
AAGTACCG | 0.113 E-score
CGCAACTC | 0.00512 E-score
ACCGAACA | -0.155 E-score
CAGTAGTC | -0.151 E-score
CTCAGATC | 0.00379 E-score
GGTTGCAC | -0.242 E-score
GCTGTTAA | 0.063 E-score

Sequence | binding signal
AATAAAGC | 0.132 E-score
CTATATCA | 0.185 E-score
CAGTGACG | -0.105 E-score
ACTGACTG | -0.281 E-score
AACATGCC | -0.112 E-score
ATCAACAT | 0.00677 E-score
CACTTGGC | -0.143 E-score
ACTCACGA | -0.0693 E-score
CATGTAAC | 0.0988 E-score
AATTCAAA | -0.0564 E-score
CTTGACTC | -0.217 E-score
GCCTGTCA | -0.218 E-score
CGTCGTCA | -0.193 E-score
GACGCCAA | -0.114 E-score
AAAACCCA | 0.153 E-score
CAACTAAC | 0.19 E-score
AGCTACCC | 0.025 E-score
GAATGATC | -0.126 E-score
ACATTTCT | 0.204 E-score
GGTGTAGA | 0.168 E-score
ATAGGTCG | 0.0592 E-score
AAGTAAAT | 0.359 E-score
ATGATGGC | 0.0131 E-score
AGCGCCCG | -0.232 E-score
TCCCGAGA | 0.0637 E-score

Sequence | binding signal
ATAGCATG | 0.213 E-score
GACTCGGA | -0.142 E-score
CGACCGAG | -0.213 E-score
ACTACGTG | -0.0355 E-score
CAAGCTAG | 0.137 E-score
ACGTTCTG | -0.103 E-score
GCTCCGCC | -0.408 E-score
CGGCATGA | -0.117 E-score
AGTCGACG | -0.108 E-score
CCGTTGTC | -0.0034 E-score
AAGCGGTC | -0.295 E-score
ACTCGGGA | 0.119 E-score
AGACCCTG | -0.33 E-score
ACGGGCTA | -0.105 E-score
AGCGCGAT | 0.164 E-score
ACAAAGGG | -0.073 E-score
ACACCGGA | -0.142 E-score
AGGTGATC | -0.0748 E-score
TACTTGGA | 0.134 E-score
GACCAGGA | -0.275 E-score
ACCGACCT | -0.0738 E-score
CGAGTGCA | -0.104 E-score
CAACATGC | -0.0466 E-score
AAAAGACC | -0.0611 E-score
AAGATGCC | -0.228 E-score

Sequence | binding signal
CATCTTTC | 0.0588 E-score
ACGCACCA | -0.186 E-score
CGTTCATA | 0.0239 E-score
ACTAATAA | 0.309 E-score
ACGATAGG | 0.157 E-score
ATGGAACA | -0.138 E-score
ACGCTATG | 0.0626 E-score
GTACATTA | 0.278 E-score
TCTCATCA | -0.0317 E-score
ATTCATTA | 0.162 E-score
AGACGTCC | -0.189 E-score
AGATATGG | 0.12 E-score
GCCTTCAC | 0.0337 E-score
GTCTGATA | 0.11 E-score
GCTGAAGA | -0.101 E-score
ATTCAGGC | -0.124 E-score
CATTGGGA | 0.0975 E-score
AAATTCCC | 0.117 E-score
CCGGCTCA | -0.212 E-score
CAAATGAA | 0.118 E-score
AACTCAGT | -0.168 E-score
AATCTAAG | 0.234 E-score

Source: PMC6212790
